Test results as given in the RNAGym collection of RNA variant scans (doi:10.7554/elife.90254).
The source gives no read counts; variants with many changes may rest on few reads.

B1: OR4K15 (parent)
chain: GUUAACGGUCAUAGGCCAUGGAAACUAGGAGCACCAUUUCGCUGCCAGUGAAGAAAUGAACAAAGAAAAUCUGGGCCAGGCAGGCAUCAAAAGAAAUAGUCUUGCGCUCAACCAGAAAGUCUGUAAUCAUUUUAAGGGUA

Variants of: B1
Assay: self-cleavage, relative activity (ratio to wild type); higher = more cleavage; in vitro, sequencing; the parent is a self-cleaving ribozyme

Variant	self-cleavage
GUUAACGGUCAUAGGCCAUGGAAACUAGGAGCACCAAUUCGCUGCCAGUGAAGAAAUGAACAAAGAAAAUCUGGGCCAGGCAGGCAUCAAAAGAAAUAGUCUUGCGCUCAACCAGACAGCCUGUAAUCAUUUUAAGGGAA [U37A A117C U120C U139A]	0.43
GUUAACGGUCAUAGGCCAUGGAAACUAGGAGCACCUUUUCGCUGCCAGUGAAGAAAUGAACAAAGAAAAUCUGGGCCAAGCAGGCGUCAGAAGAAAUAGUCUUGCGCUCAACCAGAAAGUCUGUAAUCAUUUUAAGGGUA [A36U G79A A86G A90G]	0.08
GUUAACGGUCAUAGGCCAUGGAAACUAGGAGCACCAAUUCGCUGCCAGUGAGGAAAUGAACAAAGAAAAUCUGGGCCAGGCGGGCAUCAAAAGAAAUAGACUUGCGCUCAACCAGAAAGUCUGUAAUCAUUUUAAGGGUA [U37A A52G A82G U100A]	0.1
GUUAACGGUCAUAGGCCAUGGAAACUAGGAGCACCUUUUCGCUGCCAGUGAAGAAAUGAACAAAGAAAAUCUGGGCCAGGCAGGCAUCAAAAGAAAUAGUCUUGCGCUCAACCAGAAAGGCUGUAAUCAUCUUAAGGGUA [A36U U120G U131C]	1.96
GUUAACGGUCAUAGGCCAUGGAAACUAGGAGCACCUUUUCGCUGCCAGUGAAGAAAUGAACAAAGAAAAUCUGGGCCAGGCAGGCAUCAAAAGAAAUAGUCUUGCGCUCAACCAGAAGGUCUGUAAUUACUUUAAGGGUA [A36U A118G C128U U130C]	1.07
GUUAACGGUCAUAGGCCAUGGAAACUAGGAGCACCAAUUCGCUGCCAGUGAGGAAAUGAACAAAGAAAAUCUGGGCCGGGCAGGCAUCAAAAGAAAUAGUCUUGCGCUCAACCAGAAAGUCUGUAAUCAUUUUAAGGGUA [U37A A52G A78G]	0.3
GUUAACGGUCAUAGGCCAUGGAAACUAGGAGCACCUUUUCGCUGCCAGUGAAGAAAUGAACAAAGAAAGUCUGGGCCAGGCAGGCAUCAAAAGAAAUAGUCUUGCGCUCAACCAGAAAGUCUGUAACCAUUUUAAGGGUA [A36U A69G U127C]	0.3
GUUAACGGUCAUAGGCCAUGGAAACUAGGAGCACCUUUUCGCCGCCAGCGAAGAAAUGAACAAAGAAAAUCUGGGCCAGGCAGGCAUCAAGAGAAAUAGUCUUGCGCUCAACCAGAAAGUCUGUAAUCGUUUUAAGGGUA [A36U U43C U49C A91G A129G]	0.27
GUUAACGGUCAUAGGCCAUGGAAACUAGGAGCACCUUUUCGCUGCCAGUGAAGAAACGAACAAAGAAAAUCUGGGCCAGGCAGGCAUCAAAGGAAAUAGUCUUGCGCUCAACCAGAAAGUCUGUGAUCAUUUUAAGGGUA [A36U U57C A92G A125G]	0.64
GUUAACGGUCAUAGGCCAUGGAAACUAGGAGCACCUUUUCGCUGCUUGUGAGGAAAUGAACAAGGAAAAUCUGGGCCAGGCAGGCAUCAAAAGAAAUAGUCUUGCGCUCAACCUGAAAGUCUGUAAUCAUUUUAAGGGUA [A36U C46U A47U A52G A64G A114U]	0.08
GUUAACGGUCAUAGGCCAUGGAAACUAGGAGCACCUUUUCGCUGCCAGUGAAGAAAUGAGCAAAGAAAAUCUGGGCCAGGCAGGCAUCAAAAGAGAUAGUCUUGCGCUCAACCAGAAGGUCUGUAAUCAUUUUAAGGGUA [A36U A60G A95G A118G]	1.08
GUUAACGGUCAUAGGCCAUGGAAACUAGGAGCACCUUUUCGCUGCCAGUGAAGAAAUGAACAAAGAAAAUCUGGGCCAGGCAGGCAUCAAAAGAAAUAGUCUUGCGCUCAACCAGAAAGUCCGUAAUCAUUUUAAGGGUG [A36U U122C A140G]	1.7
GUUAACGGUCAUAGGCCAUGGAAACUAGGAGCACCUUUUCGCUGCCAGUGAAGAAAUGAACGAAGAAAAUAUGGGCCAGGCAGGCAUCAAGAGAAAUAGUCUUGCGCUCAACCAGAAAGUCUGUAAUCAUUUUAAGGGUA [A36U A62G C71A A91G]	0.44
GUUAACGGUCAUAGGCCAUGGAAACUAGGAGCACCUUUUCGCUGCCAGCGAAGAAAUGAACAAAGAAAAUCUGGGCCAGGCAGGCACCAAAAGAAAUAGCCUUGCGCUCAACCAGAAAGUCUGUAUUCAUUUUAAGGGUA [A36U U49C U87C U100C A126U]	1.72
GUUAACGGUCAUAGGCCAUGGAAACUAGGAGCACCUUUUCGCUGCCAGUGAAGAAAUGAACAAAGAAAAUCUGGGCCAGGCAGGCAUCAAAAGAAGUGGUCUUGCGCCCAACCAGAAAGUCUGUAGUCAUUUUAAGGGUA [A36U A96G A98G U108C A126G]	0
GUUAACGGUCAUAGGCCAUGGAAACUAGGAGCACCUAUUCGCUGCCAGUGAAGAAAUGAACAAAGAGAAUCUGGGCCAGGCAGGCAUCAAAAGAAAUAGUCUUGCGCUCAACCAGAAAGUCUGUAAUCAUUUCAAGGGUA [A36U U37A A67G U133C]	1.4
GUUAACGGUCAUAGGCCAUGGAAACUAGGAGCACCUUUUCGCUGCCAGUGAAGAAAUGAACAAAGAAAAUCUGGGCCAGGCAGGCAUCAAAAGAAAUAGUCUUGCGCUCAACCGGAAAGUCUGUAGUCAUUUUAAGGGUA [A36U A114G A126G]	0.38
GUUAACGGUCAUAGGCCAUGGAAACUAGGAGCACCAAUUCGCUGCCAGUGAAGAAGUGAACAAAGAAAAUCUGGGCCAGGCAGGCAUCAAAAGAAAUAGUCUUGCGCUCAACCAGAUAGUCUGUAAUCAUUUUAAAGGUA [U37A A56G A117U G136A]	1.31
GUUAACGGUCAUAGGCCAUGGAAACUAGGAGCACCUUUUCGCUGCCAGUGAAGAAAUGAACAAAGAAAAUCUGGGCCAGGCAGGCAUCAAAAGAAGUAGUCUUGCGCUCAACCAGAAAGUUCGUAAUCACUUUAAGGGCA [A36U A96G C121U U122C U130C U139C]	0
GUUAACGGUCAUAGGCCAUGGAAACUAGGAGCACCUUUUCGCUGCCAGUGAAGAAAUGAACAAAGAAAAUCUGGGCCAGGCAGGCAUCAAAGGAGAUAGUCUUGUGCUCAACCAGAAAGUCUGUAAUCAUUUUAAGGGUA [A36U A92G A95G C105U]	0.86
